Reference: patent US20230145766A1 (Innovent, published 2023)

T1: IL-2Rβ receptor with an avi tag and an His6 tag at the C-terminus (human, UniProt P14784 27-240, biotin on the avi tag (enzymatic labelling with BirA))
T1 construct: Biotin-labelled and loaded on the SA sensor in the ForteBio assays; also called CD122; IL-2Rβ-His
T1 sequence: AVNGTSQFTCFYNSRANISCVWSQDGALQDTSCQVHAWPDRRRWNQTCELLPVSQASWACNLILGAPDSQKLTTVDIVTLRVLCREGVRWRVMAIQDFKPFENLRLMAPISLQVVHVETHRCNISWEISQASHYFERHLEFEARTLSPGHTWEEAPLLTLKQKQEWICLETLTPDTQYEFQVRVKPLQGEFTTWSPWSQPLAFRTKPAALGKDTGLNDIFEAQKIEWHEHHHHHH

T2: IL-2Rα receptor with an avi tag and an His6 tag at the C-terminus (human, UniProt P01589 22-217, biotin on the avi tag (enzymatic labelling with BirA))
T2 construct: Biotin-labelled and loaded on the SA sensor in the ForteBio assays; also called CD25; IL-2Rα-His
T2 sequence: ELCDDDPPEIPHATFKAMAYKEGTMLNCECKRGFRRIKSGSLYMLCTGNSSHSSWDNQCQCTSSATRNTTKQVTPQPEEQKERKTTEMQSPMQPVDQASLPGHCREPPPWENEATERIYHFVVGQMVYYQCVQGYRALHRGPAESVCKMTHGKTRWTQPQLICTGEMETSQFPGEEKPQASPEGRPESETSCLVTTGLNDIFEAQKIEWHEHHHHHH

B1: 2162 (Fc fusion)
chain: APASSSTKKTQLQLEHLLLDLQMILNGINNYKNPELEEMLTAKFYMPKKATELKHLQCLEEELKPLEEVLNLAGDASIHNLISNINVIVLQLKGSETTFMCEYADETATIVEFLNRWITFSQSIISTLTGGGGSGGGGS[omitted - human IgG1 Fc with changes]
notes: Format 1 homodimer
B2: 2166 (Fc fusion)
chain: APASSSTKKTQLQLETLLLDLQMILNGINNYKNPELEEMLTAKFYMPKKATELKHLQCLEEELKPLEEVLNLAGDASIHTLISNINVIVLELKGSETTFMCEYADETATIVEFLNRWITFSQSIISTLTGGGGSGGGGS[omitted - human IgG1 Fc with changes]
notes: Format 1 homodimer
B3: 2167 (Fc fusion)
chain: APASSSTKKTQLQLEHLLLDLQMILNGINNYKNPELEEMLTAKFYMPKKATELKHLQCLEEELKPLEEVLNLAGDASIHNLISNINIIVLELKGSETTFMCEYADETATIVEFLNRWITFSQSIISTLTGGGGSGGGGS[omitted - human IgG1 Fc with changes]
notes: Format 1 homodimer
B4: 2168 (Fc fusion)
chain: APASSSTKKTQLQLEHLLLDLQMILNGINNYKNPELEEMLTAKFYMPKKATELKHLQCLEEELKPLEEVLNLAGDASIHTLISNINVIVLELKGSETTFMCEYADETATIVEFLNRWITFSESIISTLTGGGGSGGGGS[omitted - human IgG1 Fc with changes]
notes: Format 1 homodimer
B5: 2169 (Fc fusion)
chain: APASSSTKKTQLQLEHLLLDLQMILNGINNYKNPELEEMLTAKFYMPKKATELKHLQCLEEELKPLEEVLNLAGDASIHNLISNINVIVLELKGSETTFMCEYADETATIVEFLNRWITFSESIISTLTGGGGSGGGGS[omitted - human IgG1 Fc with changes]
notes: Format 1 homodimer
B6: 2170 (Fc fusion)
chain: APASSSTKKTQLQLETLLLDLQMILNGINNYKNPELEEMLTAKFYMPKKATELKHLQCLEEELKPLEEVLNLAGDASIHQLISNINVIVLELKGSETTFMCEYADETATIVEFLNRWITFSQSIISTLTGGGGSGGGGS[omitted - human IgG1 Fc with changes]
notes: Format 1 homodimer
B7: 2171 (Fc fusion)
chain: APASSSTKKTQLQLETLLLDLQMILNGINNYKNPELEEMLTAKFYMPKKATELKHLQCLEEELKPLEEVLNLAGDASIHDLISNINIIVLELKGSETTFMCEYADETATIVEFLNRWITFSQSIISTLTGGGGSGGGGS[omitted - human IgG1 Fc with changes]
notes: Format 1 homodimer
B8: 2172 (Fc fusion)
chain: APASSSTKKTQLQLEHLLLDLQMILNGINNYKNPELEEMLTAKFYMPKKATELKHLQCLEEELKPLEEVLNLAQSKNFHDLISNINVIVLELKGSETTFMCEYADETATIVEFLNRWITFSQSIISTLTGGGGSGGGGS[omitted - human IgG1 Fc with changes]
notes: Format 1 homodimer
B9: Y045 (IL-2^WT-2*(G4S)-FcLALA) (Fc fusion)
chain: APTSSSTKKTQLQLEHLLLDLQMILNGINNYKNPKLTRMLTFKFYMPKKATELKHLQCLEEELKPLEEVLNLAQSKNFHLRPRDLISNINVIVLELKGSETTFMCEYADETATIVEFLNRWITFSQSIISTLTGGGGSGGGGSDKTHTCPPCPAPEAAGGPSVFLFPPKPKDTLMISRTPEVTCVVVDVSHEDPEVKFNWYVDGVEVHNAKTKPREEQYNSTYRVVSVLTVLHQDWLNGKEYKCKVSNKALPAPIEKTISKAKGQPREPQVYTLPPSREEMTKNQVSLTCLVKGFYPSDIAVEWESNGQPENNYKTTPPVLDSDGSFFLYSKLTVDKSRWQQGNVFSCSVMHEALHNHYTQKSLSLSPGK
notes: Format 1 homodimer; also called IL-2^WT-FC; wild-type (Y045)
B10: 2107 (Fc fusion)
chain: APASSSTKKTQLQLEHLLLNLQMILNGINNYKNPELEEMLTAKFYMPKKATELKHLQCLEEELKPLEEVLNLAGDASIHDLISNINVIVLELKGSETTFMCEYADETATIVEFLNRWITFSQSIISTLTGGGGSGGGGS[omitted - human IgG1 Fc with changes]
notes: Format 1 homodimer
B11: 2132 (Fc fusion)
chain: APASSSTKKTQLQLEHLLLDLQMILNGINNYKNPELEEMLTAKFYMPKKATELKHLQCLEEELKPLEEVLNLAGDASIHDLISTINVIVLELKGSETTFMCEYADETATIVEFLNRWITFSQSIISTLTGGGGSGGGGS[omitted - human IgG1 Fc with changes]
notes: Format 1 homodimer
B12: 2133 (Fc fusion)
chain: APASSSTKKTQLQLEHLLLDLQMILNGINNYKNPELEEMLTAKFYMPKKATELKHLQCLEEELKPLEEVLNLAGDASIHDLISQINVIVLELKGSETTFMCEYADETATIVEFLNRWITFSQSIISTLTGGGGSGGGGS[omitted - human IgG1 Fc with changes]
notes: Format 1 homodimer
B13: Y30E1 IL-2^mutant-FC fusion protein (Fc fusion)
chain: APTSSSTKKTQLQLEHLLLDLQMILNGINNYKNPELEEMLTAKFYMPKKATELKHLQCLEEELKPLEEVLNLAQSKNFHLRPRDLISNINVIVLELKGSETTFMCEYADETATIVEFLNRWITFSQSIISTLTGGGGSGGGGS[omitted - human IgG1 Fc with changes]
notes: Format 1 homodimer; also called Mutant Y30E1
B14: Y040 (IL-2^.3X-2*(G4S)-FcLALA) (Fc fusion)
chain: APTSSSTKKTQLQLEHLLLDLQMILNGINNYKNPKLTDMLTFEFYMPKKATELKHLQCLERELKPLEEVLNLAQSKNFHLRPRDLISNINVIVLELKGSETTFMCEYADETATIVEFLNRWITFSQSIISTLTGGGGSGGGGS[omitted - human IgG1 Fc with changes]
notes: also called IL-2^3X-FC
B15: 2454 (Fc fusion)
chain: APASSSTKKTQLQLEHLLLNLQMILNGINNYKNPKLTRMLTFKFYMPKKATELKHLQCLEEELKPLEEVLNLAGDASIHDLISNINVIVLELKGSETTFMCEYADETATIVEFLNRWITFSQSIISTLTGGGGSGGGGS[omitted - human IgG1 Fc with changes]
notes: Format 1 homodimer
B16: 2478 (Fc fusion)
chain: APASSSTKKTQLQLEHLLLDLQMILNGINNYKNPKLTRMLTFKFYMPKKATELKHLQCLEEELKPLEEVLNLAGDASIHDLISDINVIVLELKGSETTFMCEYADETATIVEFLNRWITFSQSIISTLTGGGGSGGGGS[omitted - human IgG1 Fc with changes]
notes: Format 1 homodimer
B17: 2481 (Fc fusion)
chain: APASSSTKKTQLQLEHLLLDLQMILNGINNYKNPKLTRMLTFKFYMPKKATELKHLQCLEEELKPLEEVLNLAGDASIHDLISRINVIVLELKGSETTFMCEYADETATIVEFLNRWITFSQSIISTLTGGGGSGGGGS[omitted - human IgG1 Fc with changes]
notes: Format 1 homodimer

These binders were tested against T1, IL-2Rβ receptor with an avi tag and an … (assay: BLI (ForteBio); biotinylated receptor on SA sensor, 100 nM IL-2 mutant molecule in solution, 1:1 model).
Description: (§1) The equilibrium dissociation constants (KD) for binding of the IL-2 mutants described above in the present invention to their receptors were measured by biological optical interferometry (ForteBio).
(§2) The ForteBio affinity assay was conducted according to the method (Estep, P et al., High throughput solution Based measurement of antibody-antigen affinity and epitope binding. mAbs, 2013.5(2): p. 270-8) known in the art. […] The kinetic analysis was performed using a 1:1 binding model.
(§3) The expression yields and purity of the IL-2 mutants were improved relative to the wild-type (Y045), and meanwhile, the introduction of the IL-2Rβγ binding interface amino acid mutations led to different levels of reductions in the affinity for IL-2Rβ and IL-2Rβγ.

Row | Binder | Kd [nM]
1 | B1 | 37.1
2 | B2 | 330
3 | B3 | 28.5
4 | B4 | 23.3
5 | B5 | 24.7
6 | B6 | 49.6
7 | B7 | 15.3
8 | B8 | 2.78

These binders were tested against T2, IL-2Rα receptor with an avi tag and an … in the same assay as above.
Description: as §1, §2, §3

Row | Binder | Kd [nM]
9 | B9 | 1.05

The binders below were run against T3, IL-2 receptor βγ complex (IL-2Rβ-Fc.Knob / IL-2Rγ-Fc.Hole heterodimer) (human, complex was biotin-labelled enzymatically (BirA); site not stated) in the same assay as above.
T3 construct: Knobs-in-holes Fc heterodimer co-expressed in Expi293 cells; also called IL-2Rβγ; IL-2 receptor βγ protein
Description: as §1, §2, §3

Row | Binder | Kd [nM]
10 | B10 | 2.63
11 | B11 | 1.99
12 | B12 | 7.68
13 | B1 | 0.313
14 | B2 | 1.72
15 | B3 | 0.287
16 | B4 | 6.97
17 | B5 | 6.68
18 | B6 | 0.861
19 | B7 | 0.158

What follows are binders tested against T2, IL-2Rα receptor with an avi tag and an … (assay: BLI (ForteBio); biotinylated receptor on SA sensor, 100 nM IL-2-Fc in solution).
Description: as §2

Row | Binder | binding result
20 | B13 | no binding (tested: 100 nM)
21 | B14 | no binding (tested: 100 nM)

What follows are binders tested against T1, IL-2Rβ receptor with an avi tag and an … (assay: BLI (ForteBio); biotinylated receptor on SA sensor, 100 nM IL-2-Fc in solution, 1:1 model).
Description: as §2

Row | Binder | Kd [nM]
22 | B13 | 5.9

What follows are binders tested against T2, IL-2Rα receptor with an avi tag and an … in the same assay as above.
Description: as §2

Row | Binder | Kd [nM]
23 | B9 | 10

The binders below were run against T1, IL-2Rβ receptor with an avi tag and an … (assay: BLI (ForteBio); biotinylated receptor on SA sensor, 100 nM IL-2-Fc in solution).

Row | Binder | binding result
24 | B10 | no binding (tested: 100 nM)
25 | B11 | no binding (tested: 100 nM)
26 | B12 | no binding (tested: 100 nM)
27 | B15 | no binding (tested: 100 nM)
28 | B16 | no binding (tested: 100 nM)
29 | B17 | no binding (tested: 100 nM)
